# Data reported in PubChem BioAssay AID1468 (National Center for Advancing Translational Sciences (NCATS), 2008).
# Hit rate of the full screen: of about 280,000 compounds, about 1,100 (0.39%) were called active. Inconclusive means that the source gave no clear call. Such entries were picked first, then a sample of the others. The call rests on the fitted dose curve; in most records, active means well fitted inhibition curve with a large enough effect; inconclusive means small, poorly fitted or top-dose-only effect, or effect the other way; inactive means flat fitted curve, though single readings scatter. No potency is given beside an inconclusive call; the fits are too rough.
# Target: Microtubule-associated protein tau (Homo sapiens) (UniProt P10636)
# UniProt P10636, sequence (P10636 whole entry, looked up): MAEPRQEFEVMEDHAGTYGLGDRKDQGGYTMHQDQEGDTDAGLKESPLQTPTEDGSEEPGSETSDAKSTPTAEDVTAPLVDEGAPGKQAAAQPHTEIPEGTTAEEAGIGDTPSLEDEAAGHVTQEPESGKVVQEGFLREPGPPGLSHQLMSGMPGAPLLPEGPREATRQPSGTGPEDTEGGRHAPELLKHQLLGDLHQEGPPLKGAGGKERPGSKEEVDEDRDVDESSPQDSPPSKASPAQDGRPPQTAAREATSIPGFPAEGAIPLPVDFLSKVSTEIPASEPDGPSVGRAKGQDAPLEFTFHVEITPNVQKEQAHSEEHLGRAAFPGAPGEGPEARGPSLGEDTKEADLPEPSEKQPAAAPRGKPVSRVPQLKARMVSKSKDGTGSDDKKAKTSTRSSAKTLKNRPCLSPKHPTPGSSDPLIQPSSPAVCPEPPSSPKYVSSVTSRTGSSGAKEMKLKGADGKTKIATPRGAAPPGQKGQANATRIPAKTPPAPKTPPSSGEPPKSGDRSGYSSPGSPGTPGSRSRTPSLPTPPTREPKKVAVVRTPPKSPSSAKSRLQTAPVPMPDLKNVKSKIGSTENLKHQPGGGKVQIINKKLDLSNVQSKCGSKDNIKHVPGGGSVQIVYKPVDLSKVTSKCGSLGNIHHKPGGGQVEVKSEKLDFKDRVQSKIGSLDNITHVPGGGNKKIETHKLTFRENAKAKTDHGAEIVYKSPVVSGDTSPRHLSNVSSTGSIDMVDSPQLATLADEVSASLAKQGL
# Assay: qHTS for Inhibitors of Tau Fibril Formation, Fluorescence Polarization; further: nearly all actives have a fitted effect of over 55% in size
# Settings: K18 P301L tau heparin fibrillization, Alexa594 FP, 6 h; series mostly up to 57.7 µM; activity, negative = inhibition: at the top concentration
# Method in brief: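 Human tau K18 […] P301L fragment, 15 uM unlabeled plus 0.24 uM Alexa 594-labeled tau (final), with compound and 20 uM heparin in 100 mM sodium acetate pH 7; 6 hr at 37 C, then Alexa 594 FP read.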
# On the % scale 0 is the no-effect control and ±100 the full control effect; potency means the concentration at half of the fitted maximal effect; tags describe the fitted curve by direction and shape.
SMILES,"activity, negative = inhibition",Potency
CN(C)CCCN1C(=O)C(=O)/C(=C(/O)c2ccncc2)C1c1cccc(Br)c1 (stereo not drawn),inactive: 0.117%,
COC(=O)c1ccc(-n2c(C)cc(C(=O)CCl)c2C)cc1,,"inconclusive [activator, partial curve]"
O=C1NC(=O)/C(=C\c2ccc(N3CCOCC3)o2)N1,,"inconclusive [inhibitor, partial curve]"
CCn1c(=O)cc(OCC(=O)Nc2ccc(C)c(F)c2)c2ccccc21,,"inconclusive [inhibitor, full curve, poor fit]"
O=c1oc2ccccc2cc1-c1cn2cc(Cc3ccccc3F)sc2n1,inactive: -11.1%,
COC1(OC)N=C(NC(=O)Nc2ccccc2)C2(C#N)C(c3ccccc3)C12C#N (stereo not drawn),,"inconclusive [inhibitor, partial curve]"
COc1ccc(N2C(=O)C(CC(=O)Nc3ccc(Cl)cc3)N(NC(=O)c3cccc(F)c3)C2=S)cc1 (stereo not drawn),,"inconclusive [inhibitor, partial curve]"
CCOC(=O)c1c(CN2CCOCC2)n(-c2ccccc2)c2cc(Br)c(O)cc12,,"inconclusive [activator, single point]"
CCc1ccc(-n2c(=O)c3cccnc3n2CC(=O)Nc2ccccc2C(F)(F)F)cc1,,"inconclusive [inhibitor, full curve, poor fit]"
Nc1cc(-c2ccc(Br)cc2)nn1S(=O)(=O)c1ccccc1,,"inconclusive [inhibitor, full curve, poor fit]"
COCC(=O)N(Cc1ccco1)c1nnc(C2CCOC2)s1 (stereo not drawn),inactive: 4.1%,
Cc1nnc(NC(=O)C(=O)c2cc(C)n(-c3ccc(C)c(C)c3)c2C)s1,inactive: 2.35%,
COc1cccc(C2=CC(c3ccc(OC)c(OC)c3)NC(=S)N2)c1 (stereo not drawn),,"inconclusive [inhibitor, single point]"
CC1=NN(c2ccc(C)cc2C)C(=O)C1C(c1ccccc1)C1C(=O)N(c2ccc(C)cc2C)N=C1C (stereo not drawn),,"inconclusive [inhibitor, partial curve, poor fit]"
CCOC(=O)c1sc2nc(C3CC3)cc(-c3ccc(OC)cc3)c2c1N,,"inconclusive [inhibitor, full curve]"
O=C(CSc1oc(-c2ccccc2)nc1S(=O)(=O)c1ccccc1)c1ccccc1,,"inconclusive [inhibitor, partial curve]"
Cc1[nH][nH]c(=O)c1C(c1ccc(-c2ccc(Cl)c(C(=O)O)c2)o1)c1c(C)[nH][nH]c1=O,,"inconclusive [inhibitor, partial curve]"
CCOC(=O)c1ccc(NC(=O)Cn2nnc(-c3ccccc3C)n2)cc1,,"inconclusive [inhibitor, partial curve, poor fit]"
COc1cccc(NC(=O)c2ccc3nc(Cc4ccccc4)oc3c2)c1,,"inconclusive [inhibitor, partial curve]"
O=C(/C=C/c1cccs1)Nc1ccc([N+](=O)[O-])cc1,inactive: -6.58%,
O=C(CSc1nc2cc(S(=O)(=O)N3CCOCC3)ccc2o1)NC1CCCc2ccccc21 (stereo not drawn),inactive: -7.74%,
O=C(Nc1ccc(Cl)cc1)c1cc2c(-c3ccccc3)nn(-c3ccccc3)c2s1,,active: 25.1 µM
Cc1nn(CC(=O)N2CCCCC2)c(=O)c2cc3occc3n12,inactive: -4.38%,

SMILES,"activity, negative = inhibition",Potency
O=C(Nc1cc(S(=O)(=O)N2CCOCC2)ccc1N1CCOCC1)C1CCCO1 (stereo not drawn),inactive: 4.24%,
CC(C)c1cc(C(N)=O)c(NC(=O)c2cccc(COc3ccc(Br)cc3)c2)s1,,"inconclusive [inhibitor, partial curve]"
O=C1CN(C(=O)COC(=O)c2ccc(N3CCCCCC3)c([N+](=O)[O-])c2)c2ccccc2N1,,"inconclusive [inhibitor, partial curve, poor fit]"
CCN=c1scc(-c2ccccc2)n1/N=C/c1ccccn1,,"inconclusive [activator, single point]"
CCn1cc(C(=O)NCCC2=CCCCC2)c(=O)c2cc(S(=O)(=O)N(C)C)ccc21,inactive: -0.33%,
COc1ccc(NC(=O)Cn2cc(C(=O)C3CCCCC3)c3ccccc32)cc1,,"inconclusive [inhibitor, single point]"
COc1ccc(-c2cc(C(F)(F)F)nc(SCCC(=O)Nc3cccc(O)c3)n2)cc1,,active: 14.1 µM
S=c1[nH]cc(-c2ccccc2)n1-c1ccccc1,inactive: -1.36%,
COC(=O)c1sccc1NC(=O)Nc1cccc(C)c1,,"inconclusive [inhibitor, single point]"
CCn1c(=O)n(-c2ccc(Cl)cc2)c(=O)c2c3c(sc21)COC(C)(C)C3,,"inconclusive [inhibitor, single point]"
CCOC(=O)C1(Cc2ccccc2)CCN(Cc2cnn(C(C)C)c2)CC1,,"inconclusive [inhibitor, single point]"
CN(C)c1cccc(C(=O)N2CCC(c3ccncc3)CC2)c1,inactive: -3.92%,
COc1cc(CNc2ccc3[nH]c(=O)[nH]c3c2)cc(Br)c1OCc1ccc(F)cc1,,"inconclusive [activator, full curve, poor fit]"
COc1ccc(-c2noc(C3CCCN(S(=O)(=O)c4ccc(C)c(Cl)c4)C3)n2)cc1OC (stereo not drawn),inactive: -3.6%,
CCC(=O)Nc1cc(C(F)(F)F)ccc1N1CCCC1,,"inconclusive [inhibitor, partial curve, poor fit]"
CCc1nnc(N/N=C/c2ccccc2F)n1N,inactive: -1.25%,
O=C(CN1CCOCC1)NNC(=S)Nc1ccccc1,inactive: -4.07%,
CCOc1ccc(CNC(=O)C2CCN(C(=O)c3sccc3-n3cccc3)CC2)cc1,inactive: 1.05%,
O=C(CCN1CCCC1Cc1ccccc1)c1ccc2c(c1)OCCO2 (stereo not drawn),,"inconclusive [activator, partial curve, poor fit]"
CN(C)c1cccc2c1c(NC(=O)Nc1ccccc1)nn2C,inactive: 0.522%,
CCc1ccc(C(=O)c2cn(CC(=O)Nc3ccc4c(c3)OCCO4)c3ccc(C)cc3c2=O)cc1,,"inconclusive [inhibitor, partial curve, poor fit]"
CC(Oc1ccccc1)C(=O)N1CCN(Cc2cc(=O)n3nc(-c4ccccc4Cl)sc3n2)CC1 (stereo not drawn),inactive: -4.98%,
CC(C)(C)OC(=O)N1CC=C2C(C#N)=C(N)C(C#N)(C#N)C(c3cccs3)C2C1 (stereo not drawn),,"inconclusive [inhibitor, single point]"

SMILES,"activity, negative = inhibition",Potency
O=C(CS(=O)(=O)c1nc(-c2ccc(Cl)cc2)cn1-c1ccccc1)Nc1ccc(F)cc1F,,"inconclusive [inhibitor, partial curve]"
CCOC(=O)c1ccc(NC(=O)NCc2ccccc2OC)cc1,,"inconclusive [inhibitor, single point]"
Cc1[nH]c2ccccc2c1C(=O)CSc1nc2ccccc2c(=O)n1-c1ccccc1F,,"inconclusive [inhibitor, partial curve]"
Cc1ccc(NC(=O)C(Cc2ccccc2)NS(=O)(=O)c2cccs2)cc1Cl (stereo not drawn),,"inconclusive [inhibitor, partial curve, poor fit]"
COc1ccc(OC)c(NC(=O)c2nnn(Cc3ccc(Br)cc3F)c2N)c1,,"inconclusive [activator, single point]"
O=C(O)CNC(=S)N(Cc1cccs1)C1CCCCC1,inactive: 7.21%,
O=C(O)/C=C/C(=O)Nc1ccc(SC(F)(F)C(F)(F)C(F)(F)F)cc1,inactive: -0.925%,
CN(c1ccccc1)S(=O)(=O)c1ccc(NC(=S)NC(=O)C2CC2)cc1,,"inconclusive [inhibitor, single point]"
O=C(/C=C\c1cn(-c2ccccc2)nc1-c1ccccc1)Nc1nccs1,,"inconclusive [inhibitor, full curve]"
CC(C)=CCc1c2c(c3occ(-c4ccc(O)c(O)c4)c(=O)c3c1O)C=CC(C)(C)O2,,active: 25.1 µM
C=CCOc1cc(C)nc(-c2ccccc2O)n1,,"inconclusive [inhibitor, single point]"
Cn1cccc1C(=O)OCC(=O)N1c2ccccc2NC(=O)C1(C)C,inactive: -6.7%,
N#Cc1c(Nc2cccc(F)c2)sc(C(=O)c2ccc(Cl)cc2)c1N,,"inconclusive [inhibitor, single point]"
CCN(c1ccccc1)S(=O)(=O)c1ccc2[nH]cc(C(=O)NCc3ccc(C)cc3)c(=O)c2c1,,active: 3.55 µM
COc1cccc(NC(=O)C(OC(=O)/C=C/c2ccc3c(c2)OCO3)c2ccccc2)c1 (stereo not drawn),,"inconclusive [inhibitor, single point]"
CCCNC(=O)Cn1nc(-c2ccc(C)c(C)c2)c2cnc3ccc(F)cc3c21,inactive: -13.5%,
O=C(CSc1nnc(-c2ccco2)c(-c2ccco2)n1)Nc1ccccc1,,"inconclusive [inhibitor, partial curve]"
COc1ccc(N2CC(NC(=O)c3ccc(OC(C)C)cc3)CC2=O)cc1 (stereo not drawn),,"inconclusive [inhibitor, single point]"
Nc1c(C(=O)Nc2ccc(F)cc2)sc(=S)n1-c1ccccc1F,inactive: -13.8%,
CCN(CC)c1ccc(NC(=O)c2cc3c(=O)n4cccc(C)c4nc3n2C)c(C)c1,,"inconclusive [inhibitor, single point]"
N#Cc1cc2c([nH]c1=S)CCCCCC2,inactive: -14.8%,
Cc1c(/C=N/NC(=O)c2ccc(O)cc2)c2ccccn2c1C(=O)c1ccc(F)cc1,,"inconclusive [activator, partial curve, poor fit]"
